According to publication PMC4336329 (PLoS ONE, 2015):
Out of some 310,000 compounds screened, about 2,200 (0.71%) showed an effect of 50% or more. The effect is printed as a negative number. The list shows a part of the results.

target: human ether-à-go-go-related gene (hERG) potassium channel (human, UniProt Q12809); experiment: primary screen, population patch clamp on CHO cells stably expressing hERG
Sequence (Q12809 whole entry, looked up): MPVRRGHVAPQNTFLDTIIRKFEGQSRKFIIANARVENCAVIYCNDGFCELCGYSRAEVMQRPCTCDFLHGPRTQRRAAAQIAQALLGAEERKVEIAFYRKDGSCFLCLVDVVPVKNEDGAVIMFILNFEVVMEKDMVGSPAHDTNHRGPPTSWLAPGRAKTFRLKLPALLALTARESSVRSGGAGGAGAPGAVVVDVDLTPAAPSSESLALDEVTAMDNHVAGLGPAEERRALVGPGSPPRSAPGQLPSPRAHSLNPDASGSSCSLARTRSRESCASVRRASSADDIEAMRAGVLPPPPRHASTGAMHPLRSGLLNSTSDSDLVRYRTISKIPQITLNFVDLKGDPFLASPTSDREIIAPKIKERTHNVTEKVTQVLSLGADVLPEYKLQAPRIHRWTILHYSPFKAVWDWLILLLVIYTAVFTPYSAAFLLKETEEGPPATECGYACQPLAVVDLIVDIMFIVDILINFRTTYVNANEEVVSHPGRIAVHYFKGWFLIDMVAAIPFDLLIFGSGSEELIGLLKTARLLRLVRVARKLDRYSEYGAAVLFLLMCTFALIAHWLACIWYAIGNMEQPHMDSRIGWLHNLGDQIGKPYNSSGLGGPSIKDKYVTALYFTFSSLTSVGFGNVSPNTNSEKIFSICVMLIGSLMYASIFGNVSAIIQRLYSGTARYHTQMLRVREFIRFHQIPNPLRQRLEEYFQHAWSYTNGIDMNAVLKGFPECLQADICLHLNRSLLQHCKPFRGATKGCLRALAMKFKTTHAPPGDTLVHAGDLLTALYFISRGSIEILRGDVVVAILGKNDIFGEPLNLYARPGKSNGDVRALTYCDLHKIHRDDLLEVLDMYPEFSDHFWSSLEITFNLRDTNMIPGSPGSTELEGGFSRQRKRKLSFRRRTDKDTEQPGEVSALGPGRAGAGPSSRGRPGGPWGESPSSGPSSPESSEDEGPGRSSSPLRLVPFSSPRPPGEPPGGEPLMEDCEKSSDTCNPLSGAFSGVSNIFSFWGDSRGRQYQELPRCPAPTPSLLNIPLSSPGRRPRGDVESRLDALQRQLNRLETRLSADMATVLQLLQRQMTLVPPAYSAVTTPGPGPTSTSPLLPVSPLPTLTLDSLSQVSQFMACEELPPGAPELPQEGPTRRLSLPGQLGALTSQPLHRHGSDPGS

Row | SMILES | hERG current change (%, negative = inhibition) at 1uM
1 | Cc1cc(OCC(=O)NCCO)ccc1Cl | 11.2%
2 | CCCCc1nnc(NC(=O)C23CC4CC(CC(NC(C)=O)(C4)C2)C3)s1 | 6.61%
3 | COc1ccccc1C1N(c2ccc(Cl)cc2)C(=O)C2CCCN21 (stereo not shown) | 19.1%
4 | Cl.N=c1n(Cc2ccc(Cl)cc2)c2ccccc2n1CC(O)COc1ccccc1 (stereo not shown) | -17.1%
5 | N#CC(C(=O)NC1CC1)c1nc2ccccc2nc1N1CCCC1 (stereo not shown) | -4.38%
6 | O=C(O)C1CCC(=O)N1C1CCCC1 (stereo not shown) | 11%
7 | CCOC(=O)CCC(NC(=O)CCC(=O)NC(CCC(=O)OCC)C(=O)OCC)C(=O)OCC (stereo not shown) | 16.1%
8 | CS(=O)(=O)NN1C(=O)c2ccccc2NC1c1c[nH]c2ccccc12 (stereo not shown) | 8.81%
9 | Cc1c(Cl)cccc1NC(=O)CCC(=O)N/N=C/c1ccco1 | 23.6%
10 | COc1ccccc1NC(=O)C1CC(=O)OC1c1ccccc1 (stereo not shown) | 4.27%
11 | COc1cc(OC)cc(C2(C#N)CCN(C)CC2)c1 | 3.75%
12 | Cc1onc(-c2ccccc2)c1C(=O)OCC(=O)N(CC(C)C)c1c(N)n(Cc2ccccc2)c(=O)[nH]c1=O | 10.2%
13 | COc1ccc(CNC(=O)CSc2ccc(Br)cc2)cc1OC | -39.7%
14 | CC1CCCCN1C(=O)c1ccccc1OC1CCN(S(C)(=O)=O)CC1 (stereo not shown) | 15.1%
15 | COc1ccc(CCn2c(=N)c(S(=O)(=O)c3ccc(Cl)cc3)cc3c(=O)n4ccccc4nc32)cc1 | 13.5%
16 | CCN(CC)c1ccc(NC(=O)CN2CCN(c3ccccn3)CC2)cc1 | 4.56%
17 | CN(Cc1ccon1)C(=O)CCc1nnc(Cc2ccc(-c3ccccc3)cc2)o1 | 3.12%
18 | COc1cc2c(cc1OC)[C@@]13CCN4CC5=CCO[C@H]6CC(=O)N2[C@H]1[C@H]6[C@H]5C[C@H]43 | 6.04%
19 | Cc1ccc(NC2CCCCC2NS(=O)(=O)c2ccc(Cl)cc2)cc1 (stereo not shown) | 2.95%
20 | CCCCNC(=O)c1c(N)n(/N=C/c2ccccn2)c2nc3ccccc3nc12 | 4.47%
21 | O=C(c1ccc(F)cc1)c1ccc(N2CCCC2)cc1 | -7.39%
22 | CC(C)C(C(=O)Nc1ccccc1)N1C(=O)c2ccccc2C1=O (stereo not shown) | 8.99%

Row | SMILES | hERG current change (%, negative = inhibition) at 1uM
23 | COc1ccccc1OCC(=O)NC1CC(C)(C)NC(C)(C)C1 | 11.2%
24 | Cc1ccccc1CN1CCC(CNC(=O)C2CCCN(c3ncnc4c3nc3n4CCCCC3)C2)CC1 (stereo not shown) | 2.84%
25 | COc1ccc(C(=O)NCC(=O)OCC(=O)N2CCN(S(=O)(=O)c3ccccc3)CC2)cc1 | 20.8%
26 | NCC(CC(=O)O)C1CCCCC1 (stereo not shown) | 9.81%
27 | COc1ccc(NC(=O)c2ccco2)c2ccccc12 | 3.98%
28 | O=C(Cc1n[nH]c(=O)[nH]c1=O)N/N=C/c1ccccc1O | 14.3%
29 | O=C(COC(=O)c1cc(S(=O)(=O)N2CCCCC2)ccc1N1CCOCC1)NC1CCS(=O)(=O)C1 (stereo not shown) | 9.54%
30 | C(=C\c1ccccc1)/CSc1nnc(-c2ccccc2)n1Cc1ccco1 | -45.4%
31 | O=C(OCCOCCN=C1NS(=O)(=O)c2ccccc21)c1ccc(F)cc1 | 14.5%
32 | CCOC(=O)/C(C#N)=C/c1cn(CCC(=O)O)nc1-c1ccc(Cl)cc1 | 12.4%
33 | COc1cccc(C(=O)Nc2cccc(C(=O)N3CCOCC3)c2)c1 | 13%
34 | Cc1c(NC(=O)C(C)OC(=O)CC2CC3CCC2C3)c(=O)n(-c2ccccc2)n1C (stereo not shown) | 7.13%
35 | O=C(COC(=O)c1cccc(Cl)c1Cl)NC1CCCC1 | 10.2%
36 | O=C(CN1CCN(c2ccc([N+](=O)[O-])cc2)CC1)Nc1nccs1 | -29.3%
37 | COc1cc(/C=C/C(=O)OCC(=O)NCc2ccco2)ccc1O | 8.92%
38 | c1ccc2c(c1)nnn2-c1ncnc2sc3c(c12)CCCC3 | -8.52%
39 | COc1ccc(OC)c(NC(=O)c2c(NC(=O)CNCc3ccco3)sc3c2CCC3)c1 | 10.5%
40 | Cc1ccc(CNc2nc3c([nH]2)c(=O)n(C)c(=O)n3C)cc1 | 5.14%
41 | COc1cc(CCC(=O)OCC(=O)NCc2ccccc2)cc(OC)c1OC | 14.8%
42 | COC(=O)c1sc2ccccc2c1NC(=O)c1ccc(S(=O)(=O)N2CCC(C)CC2)cc1 | -1.89%
43 | CCOC(=O)C1CCN(C(=O)c2ccc(N(C)S(=O)(=O)c3ccc(OC)cc3)cc2)CC1 | -6.69%
44 | O=P(C(c1c[nH]c2ccccc12)N1CCOCC1)(N1CCOCC1)N1CCOCC1 (stereo not shown) | -5.85%

Row | SMILES | hERG current change (%, negative = inhibition) at 1uM
45 | C=CCN(CC=C)CCOc1cccc(Oc2ccccc2)c1.O=C(O)C(=O)O | 8.77%
46 | CCOc1ccccc1N1CCN(C(=O)Nc2ccc(F)c(Cl)c2)CC1 | 3.05%
47 | CCc1nn(C(C)C(=O)NCCc2ccccc2)c(=O)c2cc3occc3n12 (stereo not shown) | -12.5%
48 | O=C(Cn1cnc([N+](=O)[O-])n1)N/N=C/c1cc(Cl)ccc1O | 15.3%
49 | O=C(NCCc1ccc(Cl)cc1)c1ccc(S(=O)(=O)N2CCCC2)cc1 | 13%
50 | CC(C)(C)C(=O)Cn1nc(Cl)nc1Cl | 2.97%
51 | COc1ccc(-c2cc(C3CCN(C(=O)OC(C)(C)C)CC3)[nH]n2)cc1 | -10.2%
52 | COc1ccc(N2CCN(c3oc(COc4ccc(Cl)cc4)nc3C#N)CC2)cc1 | 11.6%
53 | COc1cc(C(=O)NCC(C)C)cc(OC)c1OC | 2.16%
54 | C#CCOCCOCCOCCNc1nc(N2CCN(C(=O)[C@H](CCCCN)n3cc([C@@H](N)CO)nn3)CC2)nc(N2CCN(C(=O)[C@H](Cc3ccc(O)cc3)n3cc([C@@H](N)CC(C)C)nn3)CC2)n1.Cl | 7.71%
55 | CCOC(=O)CC(=O)CSc1ccc2nnc(-c3ccc(F)cc3)n2n1 | -6.85%
56 | COc1cc(Cl)ccc1OCc1cc(C(=O)N2C[C@@H]3CCC[C@H]2C3)no1 | -1.75%
57 | COc1ccc(OC)c(C2=NS(=O)(=O)N(C)C(C(=O)Nc3cccc(C(C)=O)c3)=C2)c1 | 10.7%
58 | COc1ccc(CCN2C(=O)C3C4CCC(C4=C(C)C)C3C2=O)cc1OC (stereo not shown) | 20.4%
59 | COc1ccc(/C=C(\NC(=O)c2ccc(C)cc2)C(=O)NCC2CCCO2)cc1 (stereo not shown) | 7.69%
60 | COc1cccc(CC(=O)OCC(=O)NC(Cc2ccccc2)C(C)=O)c1 (stereo not shown) | 10.5%
61 | O=C(Nc1cccc(O)c1)c1cc(-c2ccc3c(c2)OCO3)on1 | 10.5%
62 | O=C(Cc1ccc(-n2cccc2)cc1)NC1CCCCCC1 | -0.777%
63 | COc1ccc(C(=O)Nc2cccc(OC(=O)c3ccc(C)c(C)c3)c2)cc1 | 4.55%
64 | COc1ccc(/C=C/C(=O)Nc2ccccc2C(=O)O)cc1OC | 1.14%
65 | O=C(Nc1cccc(NC(=O)c2ccco2)c1)c1ccccc1 | 8.64%
66 | Cc1ccc(-c2c[n+]3c(n2-c2ccccc2)SCC3)cc1.[Br-] | 3.99%

Row | SMILES | hERG current change (%, negative = inhibition) at 1uM
67 | CC(=O)c1sc(NC(=O)C2CCN(C(=O)c3ccccc3C)CC2)nc1-c1ccccc1 | 3.01%
68 | N#CC(=C1Nc2ccccc2N1)S(=O)(=O)c1ccccc1 | 12.6%
69 | O=C(CN(c1ccccc1F)S(=O)(=O)c1ccccc1)NC1CCCCCC1 | 0.113%
70 | O=C(COC(=O)[C@@H]1CCCN1S(=O)(=O)c1ccc(Cl)cc1)NC1CCS(=O)(=O)C1 (stereo partly shown) | 3.16%
71 | O=[N+]([O-])c1ccc(S(=O)(=O)NCC2COc3ccccc3O2)cc1 (stereo not shown) | 6.48%
72 | CCN(c1ccccc1)c1cc(C)nc2nc(C)nn12 | 9.63%
73 | CSc1ccc(Cl)c(C(=O)NCC(C)C)c1 | 16.1%
74 | CCOC(=O)C1(CC2CCCCO2)CCN(C(=O)Nc2ccc(C(=O)OC)cc2)CC1 (stereo not shown) | 6.97%
75 | CCCn1c(N)c(N(CCOC)C(=O)c2ccc(N(C)S(=O)(=O)c3ccc(C)cc3)cc2)c(=O)[nH]c1=O | 5.23%
76 | COc1ccc(CNc2nc3nc(-c4ccccc4)cc(=O)n3[nH]2)cc1OC | -12.9%
77 | O=C(O)c1ccc2c(c1)C1C=CCC1C(c1cc3c(cc1Br)OCO3)N2 (stereo not shown) | 15%
78 | COc1ccccc1CCCNC(=O)C1CCC(=O)N(Cc2ccccc2F)C1 (stereo not shown) | 5.57%
79 | CCc1nnc(SCC(=O)NC2CCCCC2)nc1CC | -10.6%
80 | Cc1ccc(S(=O)(=O)NCCC(c2ccc(F)cc2)c2ccco2)cc1 (stereo not shown) | 16.1%
81 | COc1ccc(N2CC(C(=O)Nc3nnc(SCC(=O)NC4CCCC4)s3)CC2=O)cc1 (stereo not shown) | 15.8%
82 | O=C1/C(=C/c2cccc([N+](=O)[O-])c2)CSc2ccc(Cl)cc21 | 13.6%
83 | CCCCC(=O)Nc1cccc(NC(=O)c2cccnc2Cl)c1 | 6.85%
84 | COc1ccc(N2CCN(S(=O)(=O)CCNC(=O)C(C)Oc3ccccc3)CC2)cc1 (stereo not shown) | 7.29%
85 | COC(=O)C1CCN(C(=O)CCC2CCCCC2)CC1 | 15.2%
